# Paper PMC12136788
# The list shows a part of the results.
# T1: UNK ZnF1-6 (called full-length) (human, UniProt Q9C0B0 30-357)
# T1 sequence: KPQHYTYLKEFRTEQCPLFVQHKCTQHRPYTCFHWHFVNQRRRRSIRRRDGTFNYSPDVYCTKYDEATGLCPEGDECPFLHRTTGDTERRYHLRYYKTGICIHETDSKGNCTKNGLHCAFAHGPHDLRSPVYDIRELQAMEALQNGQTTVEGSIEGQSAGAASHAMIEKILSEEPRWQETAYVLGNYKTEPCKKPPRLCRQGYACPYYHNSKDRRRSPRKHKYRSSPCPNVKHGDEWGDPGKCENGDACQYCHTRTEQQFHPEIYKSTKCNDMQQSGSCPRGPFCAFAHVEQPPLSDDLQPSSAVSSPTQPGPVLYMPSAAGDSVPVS
# B1: chr1:108700024:108700125:+|3pUTR|ENSG00000134186|msi1|FALSE|bound_elsewhere (ssRNA)
# RNA: GGGAGUUCUACAGUCCGACGAUCCACAUUGAAUCCUAUAAAUGAUUAAAUCUGCUUUUUUCCCCCACGUUGAGAUUGUGCAGUAGUUCGCACUCCUCAAGCUCUCCCUGUAGGCUGCAUUUUCAUUUCCUCUUUCGUGUAGGGCAACAGAGGAUUGAGCAUCA
# B2: chr1:64832709:64832810:+|3pUTR|ENSG00000162437|msi1|total|mutant (ssRNA)
# RNA: GGGAGUUCUACAGUCCGACGAUCACAGCCCGAAAGUUUAAGGUAAUUUCUAAGUAUACUACCUAUAAGUAACUGAUAAGAAUCCGGCAUCAUUCAGUGAUACCGCAGAUGACUAAUGGGUUUUUCAGGCCCUGCACUUCUCUUCAACAGAGGAUUGAGCAUCA
# B3: ENSG00000138778:stop:overlap|stop_codon|ENSG00000138778|stop_codon|NA|stop_codon (ssRNA)
# RNA: GGGAGUUCUACAGUCCGACGAUCCUCAGCCAGGUCCUUGGCACGCCUCCUCAGGCAAGGAUGUGCCUGAGUGCAAAACUCAGUAGACUCCUCUUUGUCACUUCUCUGGAGAUCCAGCAUUCCUUAUUUGGAAAUGACUUUGUUCAACAGAGGAUUGAGCAUCA
# B4: chr11:10511672:10514915:-|three_prime_utr|ENSG00000110315|control|control|control (ssRNA)
# RNA: GGGAGUUCUACAGUCCGACGAUCGAAGUGAAAGUCUUCUGUUGCUAUUGUGGGCUCAAAUAUUUGGUCAUGGGGGAAGAAUGUAGGGUUGUGGCACUGGCACAGACACAGGAAAAUCCAUUUUCCCCACUCUUUUAUUUUUGCCAACAGAGGAUUGAGCAUCA
# B5: chr4:173322470:173322571:+|3pUTR|ENSG00000109586|msi1|total|mutant (ssRNA)
# RNA: GGGAGUUCUACAGUCCGACGAUCUGCCGCAUUCACUCCCUUACCUACUGGCAUUCCCAGUGCCCUCUGUCCAUACCUACUUCCCGGAUUGCAAAGGAGUCUUCCAACCCGAGAAAAAUUGUCCACUGACAUUUGGGAUUUACUCAACAGAGGAUUGAGCAUCA
# B6: chr10:60791946:60792061:+|CDS|ENSG00000170312|unk|total|mutant (ssRNA)
# RNA: GGGAGUUCUACAGUCCGACGAUCGUCAGCUCGUUACUCAACUCCAGUUGACAUUUGGAGUACCGGCACCAUAUUUGCUGAACCCGCAACUAAGAAACCACUUUUCCAUGGGGAUUCAGAAAUUGAUCAACUCUUCAGGAUUUUCAACAGAGGAUUGAGCAUCA
# B7: chr17:15229982:15230086:-|3pUTR|ENSG00000109099|msi1_unk|total|mutant (ssRNA)
# RNA: GGGAGUUCUACAGUCCGACGAUCUCAUAAAGCCUUCAUCACUCCCACAUUUUUCUUACGGUCGGAGCAUCAGAACAAGCGUCCCGACUCCUUGGGACCGUGAGUUCCCCGAGCUUGGCUGGGUCCCGGCUGUUCUGUGCCUCCCAACAGAGGAUUGAGCAUCA
# B8: chr20:3582170:3582271:+|CDS|ENSG00000088812|msi1|FALSE|bound_elsewhere (ssRNA)
# RNA: GGGAGUUCUACAGUCCGACGAUCGGCCUUCGGAAGAUCAAUGUGUCCUACUGGUGCUGGGAAGAUAUGUCCCCAUUUACAAAUAGUUUACUACAGUGGAUGCCGUCUGAGCCCAGUGAUGCUGGAUUCUGUGGAAUUUUAUCACAACAGAGGAUUGAGCAUCA
# B9: chr10:74118286:74118577:+|3pUTR|ENSG00000035403|msi1|FALSE|unique (ssRNA)
# RNA: GGGAGUUCUACAGUCCGACGAUCGUAUUCUCAAACACAGUUACACUUGUGCACCCUCUAUCCCAAUAGGCAGACUGGGUUUCUAGCCCAUGGACUUCACAUAAGCUCAGAAUCCAAGUGAACACUAGCCAGACACUCUGCUCUCAACAGAGGAUUGAGCAUCA
# B10: chr20:50583650:50583751:+|3pUTR|ENSG00000196396|msi1|total|mutant (ssRNA)
# RNA: GGGAGUUCUACAGUCCGACGAUCUUCCUAAGCCUGUUGCUGAAGUCAUUGUCGCUCAGCAACCGGGUGCAGUUUUCCAGGAACCGGCAUUUGCCUAAUUCCUGGCAUGACACUCCCGUGACUUCCUGGUGAGGCCCAGCCUGUCAACAGAGGAUUGAGCAUCA
# B11: chr9:86945015:86945116:-|3pUTR|ENSG00000180447|msi1|total|mutant (ssRNA)
# RNA: GGGAGUUCUACAGUCCGACGAUCUUGGUUUUGGAUAAGUUUGAGCCCUUGACCUUAAUUUCAUUGCUACCACUCUGAUCUCUCCGCACAUUUCUCCGGAUUAAGGGUCCAAAAAUGCUGAUCUAAGGGGUUGCCAUGGUGUUGCAACAGAGGAUUGAGCAUCA
# B12: chr1:32196422:32196614:+|3pUTR|ENSG00000084652|msi1|total|mutant (ssRNA)
# RNA: GGGAGUUCUACAGUCCGACGAUCACAGUUGUUUCUGUGUCCUGUUCUACCCCCACUCCAGUACAUAACUACUAUGUACUGUGCCGAGCCAUUCUAUAUGCUGAAUGUUCUGCUGUUGCAAACUUGCCAGGGUAUCCGCCAGUGCAACAGAGGAUUGAGCAUCA
# B13: chr18:33333173:33333394:-|CDS|ENSG00000166960|control|control|control (ssRNA)
# RNA: GGGAGUUCUACAGUCCGACGAUCACAUUUUGAAAAACAAAAGACAGAGUUAGAAGAAGCAAAUGCAAAGAUUCAAGCAGACAUAGACUACAUGAAUGAACAUGGCCCUCUACUGGACUCUAAGCAGAAUCAGGAACUUCAAGACAACAGAGGAUUGAGCAUCA
# B14: chrX:65741246:65741425:+|3pUTR|ENSG00000147065|msi1|FALSE|unique (ssRNA)
# RNA: GGGAGUUCUACAGUCCGACGAUCUAUUAUGUACUCUACUGAUAUCUAAAUAUUGAUUUCUGCCUUCCUUGCUAAUGCACCAUUAGAAGAUAUUAGUCUUGGGGCAGGAUGAUUUUGGCCUCAUUACUUUACCACCCCCACACCCAACAGAGGAUUGAGCAUCA
# Target: T1, UNK ZnF1-6 (called full-length)
# Test: nsRBNS (natural sequence RNA bind-n-seq); RBNS binding buffer (assumed for nsRBNS): 25 mM Tris pH 7.5, 150 mM KCl, 3 mM MgCl2, 0.01% Triton X-100, 500 ug/ml BSA, 20 U/ml SUPERase-In, 4 C; UNK is unkempt and MSI1 is Musashi-1; names of the RNAs are library labels; protein concentration not given here; high values mean tight binding
row,Binder,binding signal [enrichment R]
1,B1,0.662
2,B2,0.244
3,B3,0.636
4,B4,0.749
5,B5,1.06
6,B6,0.671
7,B7,0.662
8,B8,0.689
9,B9,0.418
10,B10,0.376
11,B11,0.575
12,B12,0.555
13,B13,0.467
14,B14,1.06
